In all, about 81,000 sequences were measured (“one-hybrid fitness for binding NBS DNA”: median about -0.1, highest 2% from about 0.36 on). Some of the results follow.
B1: Caulobacter ParB omega fusion; a variant is named by its letters at X, in order, B8GW30 (parent)
chain: MESVVVGEPGMSEGRRGLGRGLSALLGEVDAAPAQAPGEQLGGSREAPIEILQRNPDQPRRTFREEDLEDLSNSIREKGVLQPILVRPSPDTAGEYQIVAGERAWRAAQRAGLKTVPIMVRELDDLAVLEIGIIENVQRADLNVLEEALSYKVLMEKFERTQENIAQTIGKSXSHVANXMRLLXLPDEVQSYLVSGELTAXHARAIAAAADPVALAKQIIEGGLSVRETEALARKAPNLSAGKSKGGRPPRVKDTDTQALESDLSSVLGLDVSIDHRGSTGTLTITYATLEQLDDLCNRLTRGI

Variants of: B1
Test: one-hybrid fitness for binding NBS DNA (the Noc-binding site; scaled: cognate 1, non-cognate 0); higher = stronger binding
Settings: with NBS DNA site
Outline: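 On M9-minus-histidine containing 0.1 mM IPTG and 5 mM 3-AT, E. coli USO cells with a HIS3 reporter, site 19 bp from the promoter, grew 48 hours at 37°C to select Caulobacter ParB libraries randomised at four specificity codons. Plasmids from before and after were Illumina-sequenced, with three replicate libraries pooled and variants under 10 reads left out. Fitness is the log change in variant-to-wild-type read ratio, rescaled against cognate and non-cognate.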
With HASS the “one-hybrid fitness for binding NBS DNA” value was at most 0.2.
With LLQM the “one-hybrid fitness for binding NBS DNA” value was at most 0.2.
For IDRK, the “one-hybrid fitness for binding NBS DNA” value was at most 0.2.
With RWAR the “one-hybrid fitness for binding NBS DNA” value was at most 0.2.
In the case of SNPW, the “one-hybrid fitness for binding NBS DNA” value is reported as at most 0.2.
In the case of TDCY, the “one-hybrid fitness for binding NBS DNA” value is reported as at most 0.2.
In the case of DGAT, the “one-hybrid fitness for binding NBS DNA” value is reported as at most 0.2.
In the case of TIQG, the “one-hybrid fitness for binding NBS DNA” value is reported as at most 0.2.
In the case of TPLF, the “one-hybrid fitness for binding NBS DNA” value is reported as at most 0.2.
For GTRI, the “one-hybrid fitness for binding NBS DNA” value was at most 0.2.
YLTF was tested, and the “one-hybrid fitness for binding NBS DNA” value was at most 0.2.
SRSS was tested, and the “one-hybrid fitness for binding NBS DNA” value was at most 0.2.
With HMRF the “one-hybrid fitness for binding NBS DNA” value was at most 0.2.
In the case of LELG, the “one-hybrid fitness for binding NBS DNA” value is reported as at most 0.2.
For VRLR, the “one-hybrid fitness for binding NBS DNA” value was 0.209.
CMMT was tested, and the “one-hybrid fitness for binding NBS DNA” value was at most 0.2.
With HMFS the “one-hybrid fitness for binding NBS DNA” value was at most 0.2.
RRKL was tested, and the “one-hybrid fitness for binding NBS DNA” value was 0.259.
With FVPL the “one-hybrid fitness for binding NBS DNA” value was at most 0.2.
LCGR was tested, and the “one-hybrid fitness for binding NBS DNA” value was at most 0.2.
QMYT was tested, and the “one-hybrid fitness for binding NBS DNA” value was 0.436.
In the case of RRDG, the “one-hybrid fitness for binding NBS DNA” value is reported as at most 0.2.
TSDF was tested, and the “one-hybrid fitness for binding NBS DNA” value was at most 0.2.
With IAVG the “one-hybrid fitness for binding NBS DNA” value was at most 0.2.
In the case of EEPE, the “one-hybrid fitness for binding NBS DNA” value is reported as at most 0.2.
IRTP was tested, and the “one-hybrid fitness for binding NBS DNA” value was at most 0.2.
WARN was tested, and the “one-hybrid fitness for binding NBS DNA” value was at most 0.2.
In the case of HRPS, the “one-hybrid fitness for binding NBS DNA” value is reported as at most 0.2.
For FPER, the “one-hybrid fitness for binding NBS DNA” value was at most 0.2.
NPLL was tested, and the “one-hybrid fitness for binding NBS DNA” value was at most 0.2.
KHST was tested, and the “one-hybrid fitness for binding NBS DNA” value was at most 0.2.
In the case of QHCM, the “one-hybrid fitness for binding NBS DNA” value is reported as at most 0.2.
In the case of LMEL, the “one-hybrid fitness for binding NBS DNA” value is reported as at most 0.2.
For MNIR, the “one-hybrid fitness for binding NBS DNA” value was at most 0.2.
In the case of RHQA, the “one-hybrid fitness for binding NBS DNA” value is reported as at most 0.2.
With MAAR the “one-hybrid fitness for binding NBS DNA” value was at most 0.2.
With PQSW the “one-hybrid fitness for binding NBS DNA” value was at most 0.2.
DSVL was tested, and the “one-hybrid fitness for binding NBS DNA” value was at most 0.2.
In the case of SGSR, the “one-hybrid fitness for binding NBS DNA” value is reported as at most 0.2.
In the case of YAKL, the “one-hybrid fitness for binding NBS DNA” value is reported as at most 0.2.
With MRAI the “one-hybrid fitness for binding NBS DNA” value was at most 0.2.
For SVAD, the “one-hybrid fitness for binding NBS DNA” value was at most 0.2.
With KSCG the “one-hybrid fitness for binding NBS DNA” value was at most 0.2.
With QMGG the “one-hybrid fitness for binding NBS DNA” value was at most 0.2.
PITT was tested, and the “one-hybrid fitness for binding NBS DNA” value was at most 0.2.
HRGK was tested, and the “one-hybrid fitness for binding NBS DNA” value was at most 0.2.
RSDS was tested, and the “one-hybrid fitness for binding NBS DNA” value was at most 0.2.
For YYDG, the “one-hybrid fitness for binding NBS DNA” value was at most 0.2.
For SFWL, the “one-hybrid fitness for binding NBS DNA” value was at most 0.2.
In the case of VIFR, the “one-hybrid fitness for binding NBS DNA” value is reported as at most 0.2.
CKDY was tested, and the “one-hybrid fitness for binding NBS DNA” value was at most 0.2.
With LAKG the “one-hybrid fitness for binding NBS DNA” value was at most 0.2.
YIQR was tested, and the “one-hybrid fitness for binding NBS DNA” value was at most 0.2.
In the case of WISA, the “one-hybrid fitness for binding NBS DNA” value is reported as at most 0.2.
With VDMP the “one-hybrid fitness for binding NBS DNA” value was at most 0.2.
With QPRS the “one-hybrid fitness for binding NBS DNA” value was at most 0.2.
With QCLY the “one-hybrid fitness for binding NBS DNA” value was at most 0.2.
For TYSK, the “one-hybrid fitness for binding NBS DNA” value was at most 0.2.
In the case of TSPY, the “one-hybrid fitness for binding NBS DNA” value is reported as at most 0.2.
In the case of VSVT, the “one-hybrid fitness for binding NBS DNA” value is reported as at most 0.2.
In the case of LHPP, the “one-hybrid fitness for binding NBS DNA” value is reported as at most 0.2.
In the case of QCWG, the “one-hybrid fitness for binding NBS DNA” value is reported as at most 0.2.
For KYEE, the “one-hybrid fitness for binding NBS DNA” value was at most 0.2.
HTTM was tested, and the “one-hybrid fitness for binding NBS DNA” value was at most 0.2.
KMTT was tested, and the “one-hybrid fitness for binding NBS DNA” value was at most 0.2.
VAMY was tested, and the “one-hybrid fitness for binding NBS DNA” value was at most 0.2.
For DAYG, the “one-hybrid fitness for binding NBS DNA” value was at most 0.2.
YMDY was tested, and the “one-hybrid fitness for binding NBS DNA” value was at most 0.2.
For QVWN, the “one-hybrid fitness for binding NBS DNA” value was at most 0.2.
With LIHT the “one-hybrid fitness for binding NBS DNA” value was at most 0.2.
For SGCT, the “one-hybrid fitness for binding NBS DNA” value was at most 0.2.
For AYLN, the “one-hybrid fitness for binding NBS DNA” value was at most 0.2.
PLTV was tested, and the “one-hybrid fitness for binding NBS DNA” value was at most 0.2.
In the case of CGNY, the “one-hybrid fitness for binding NBS DNA” value is reported as at most 0.2.
With IQWG the “one-hybrid fitness for binding NBS DNA” value was at most 0.2.
With QHGG the “one-hybrid fitness for binding NBS DNA” value was at most 0.2.
With PHGN the “one-hybrid fitness for binding NBS DNA” value was at most 0.2.
With TERT the “one-hybrid fitness for binding NBS DNA” value was at most 0.2.
NPDT was tested, and the “one-hybrid fitness for binding NBS DNA” value was at most 0.2.
GHMC was tested, and the “one-hybrid fitness for binding NBS DNA” value was at most 0.2.
GRDF was tested, and the “one-hybrid fitness for binding NBS DNA” value was at most 0.2.
For AMHL, the “one-hybrid fitness for binding NBS DNA” value was at most 0.2.
For EKMG, the “one-hybrid fitness for binding NBS DNA” value was at most 0.2.
In the case of VTAY, the “one-hybrid fitness for binding NBS DNA” value is reported as at most 0.2.
